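Each compound was tested at five concentrations against cells in 96-well plates for 48 hours. GI50 marks 50% less growth.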 Calls of active or inactive are those of the source. No stated cut-off is given here; in the data, active = GI50 up to about 1.1 µM and inactive = higher.
System: NCI-H322M
Experiment: inhibition of tumour cell growth, NCI panel, 48 h

SMILES	GI50
CN1CCN(c2ccc3[nH]c(-c4ccc5[nH]c(-c6ccc(O)cc6)nc5c4)nc3c2)CC1	inactive: 119 µM
CC(C)[Si]1(C(C)C)OCC2OC(n3cnc4c(N)ncnc43)C(N)C2O[Si](C(C)C)(C(C)C)O1 (centres undefined)	inactive: 22.9 µM
c1ccc(C(CCN2CCCC2)c2ccccn2)cc1 (centres undefined)	inactive: > 100 µM
CSc1nc(NC(C)C)c2c(n1)Sc1nc3ccccc3n1C2O (centres undefined)	inactive: 9.68 µM
CC(C)/C(Cl)=N\OC(=O)Nc1cccc(F)c1	inactive: 12.8 µM
Cc1ccc(-c2cn3c(nc4ccccc43)c(C)n2)cc1	inactive: > 62.5 µM
C1CSCCSCCCSCCSCCCSCCSCCCSCCSC1	inactive: > 100 µM
CC(=O)Oc1cc2c(cc1OC(C)=O)OCC(c1ccccc1)C2 (centres undefined)	inactive: 34.4 µM
COC(=O)/C=C/c1ccc2c(c1)CC1(C2)Cc2cc3c(cc2C1=O)CCC3 (centres undefined)	inactive: > 100 µM
CCCCCCC(=O)CC(=O)C(=O)Nc1ccccc1C	inactive: > 78.5 µM
C[C@]12CCC(N3CCCC3)CC1=CC[C@@H]1[C@@H]2CC[C@]2(C)C(O)[C@H](n3ccnc3)C[C@@H]12 (some centres undefined)	inactive: > 100 µM
O=C1CCc2c3c(c4c([nH]c5ccccc54)c2CC1)C(=O)NC3=O	inactive: 14.8 µM
CS(=O)(=O)c1ccc(/N=C/C=C/Nc2ccc(S(C)(=O)=O)cc2)cc1	inactive: > 100 µM
COc1ccc(CC(N)c2ccc(OC)cc2)cc1 (centres undefined)	inactive: > 100 µM
C[C@@H]1O[C@@H]2OCC[C@@H]2C2=C1C(=O)c1ccccc1C2=O	inactive: 15.6 µM
COc1ccc(/C=c2/sc3n(c2=O)NC2(CCCCC2)NN=3)cc1	inactive: > 100 µM
Brc1ccc2c(c1)-c1nc3c(cc1CC2)CCc1ccc(Br)cc1-3	inactive: > 100 µM
COc1cc(Br)cc2cc(-c3cn4ccsc4n3)c(=O)oc12	inactive: 36.1 µM
N#CC1=C(N)OC2=C(CCCc3ccccc32)C1c1ccc([N+](=O)[O-])cc1 (centres undefined)	inactive: 21.3 µM
c1ccc(-c2cc(-c3cc(-c4ccccc4)no3)on2)cc1	inactive: > 100 µM

SMILES	GI50
CC(=O)N1CC(C)(C)c2c1cc(C)c(O)c2C	inactive: > 100 µM
CCC(CC)NC1=C(NC(C)=O)C(=O)c2ccccc2C1=O	inactive: > 50 µM
COc1ccc2c(c1)N=C1CSC(c3ccccc3Cl)N1C2 (centres undefined)	inactive: 15.3 µM
CN(C)CN1C(=O)S/C(=C2\C(=O)N(CN(C)C)c3ccccc32)C1=O	inactive: > 100 µM
O=c1oc2ccc3ccccc3c2cc1-c1cn2ccccc2n1	inactive: 62.2 µM
CCOC1CN(C)/C(=N\c2cccc3ccccc23)S1 (centres undefined)	inactive: > 10 µM
Cn1c2ccccc2c(=O)c2c(O)cc3c(c21)C=CC1(CCCC1)O3	inactive: > 100 µM
O=C(CSc1nc2ccccc2c(=O)n1-c1ccccc1)N/N=C1\C(=O)Nc2ccc(Br)cc21	inactive: 2.92 µM
CC(=O)c1c2c(cc3c1CC1(Cc4ccccc4C1=O)C3)CCC2 (centres undefined)	inactive: 24.7 µM
O=c1[nH]n(CCc2ccccc2CCl)c2ccc([N+](=O)[O-])cc12	inactive: > 100 µM
CCCc1cc(=O)oc2c(C=O)c(O)cc(O)c12	inactive: 24.9 µM
CC1(Cl)C(=O)NC(=O)N(C2CC(N=[N+]=[N-])C(CO)O2)C1N=[N+]=[N-] (centres undefined)	inactive: > 100 µM
C=C1CCCCCCCCCCC12SCCC2CCCCSC (centres undefined)	inactive: 32.2 µM
Cc1ccc(-c2c3c(n(C4OC(CO)C(O)C(O)C4O)c(=S)c2C#N)CC(C)(C)CC3=O)cc1 (centres undefined)	inactive: > 100 µM
C=CCOC(C)(C)C1=CCC(C)CC1 (centres undefined)	inactive: > 100 µM
CN(c1ccccc1Cl)S(=O)(=O)c1ccc([N+](=O)[O-])cc1	inactive: > 100 µM
O=C1O[C@@H](c2ccccc2)C[C@@H]1CN1CCOCC1	inactive: > 100 µM
CC(C)(C)OC(=O)N(CCCN)CCCCN(CCCN)C(=O)OC(C)(C)C	inactive: > 100 µM
Cc1c(O)c(=O)ccn1C1OC(CO)C(O)C1O (centres undefined)	inactive: > 100 µM
